In PubChem BioAssay AID1347417 (National Center for Advancing Translational Sciences (NCATS), 2020):
Screen size: about 120,000 compounds; about 5,300 (4.4%) were called active. Inconclusive results, whose numbers are uncertain, are shown with a selection of clear calls. Calls come from the whole dose curve; as a rule, active = well fitted inhibition curve with a large enough effect; inconclusive = small, poorly fitted or top-dose-only effect; inactive = no such curve, though single readings can be large or run the other way. A potency beside an inconclusive call is a rough fit, not a confirmed value.

Assay: qHTS Primary assay for Inhibitors of Plasmodium falciparum Dd2 growth in vitro; note: nearly all actives have a fitted effect of over 65% in size;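 for activity, negative = inhibition: plate controls were DMSO vehicle for no effect and reference drug for full effect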
Settings: P. falciparum Dd2 growth, SYBR Green, 72 h; activity, negative = inhibition: at 28.9 µM (top of the series) unless noted; series mostly up to 28.9 µM
Procedure, shortened: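 Infected erythrocytes (Dd2, 0.3% parasitemia, 2.5% hematocrit final) are added to compound in RPMI-1640/Albumax II medium, grown 72 h at 37C in low oxygen, then lysed with saponin/Triton-X containing SYBR Green and read by fluorescence.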
Potency is the fitted concentration of half-maximal effect; tags give direction and shape of the fitted curve.

Structure (SMILES) | Potency | activity, negative = inhibition
COC(=O)CNC(=O)c1nc(-c2cc(Cl)cc(Cl)c2)c2ccccn12 | inactive | –
CC1=C[C@@H](CNC(=O)COc2ccccc2)[C@H](C(C)C)C[C@H]1Cc1nc2ccncc2[nH]1 | inconclusive: 2.51 µM [inhibitor, full curve, poor fit] | –
CN(c1ccccc1)c1ccc2nnc(-c3cc(C(=O)NCc4cccnc4)ccn3)n2n1 | inconclusive: 0.631 µM [inhibitor, full curve, poor fit] | –
Cc1ccc(Cl)cc1N1CCN(C(=O)C(C)n2ncn3cccc3c2=O)CC1 (stereo unspecified) | – | inconclusive: -48.1% [inhibitor] [at 0.594 µM]
O=C(Nc1ccc(F)c(Cl)c1)c1cnc(-c2ccccc2)nc1-c1ccncc1 | inconclusive: 2.82 µM [inhibitor, partial curve, poor fit] | –
CCCCN(CCCC)C(=O)c1cc2c(=O)n3ccccc3nc2s1 | inconclusive: 11.2 µM [inhibitor, partial curve, poor fit] | –
COC[C@@H]1CN(Cc2cn[nH]c2-c2ccccc2)C[C@H]1c1nc(C)no1 | inconclusive: 0.199 µM [inhibitor, full curve] | –
CCC1=C(C(=O)OC)C(c2ccccc2OC)N2C(CC(=O)N3CCC(C)CC3)=CSC2=N1 (stereo unspecified) | inconclusive: 0.891 µM [inhibitor, partial curve, poor fit] | –
COc1ccc(C(=O)N[C@H]2C[C@@H](Cc3cc(COc4ccccc4)on3)C2(C)C)cc1 | inconclusive: 7.94 µM [inhibitor, partial curve, poor fit] | –
Cc1ccc(S(=O)(=O)c2c(Nc3ccccc3)sc(C(=O)c3ccc4c(c3)OCO4)c2N)cc1 | active: 12.6 µM | –
Cc1ccc2nc(COCC(=O)N3CCn4nc(CO)cc4C3)[nH]c2c1 | inactive | –
COC[C@H]1NC(=O)CC[C@H]1C(=O)Nc1cc(OC)ccc1OC | inactive | –
CC(C)(C)c1cc(C[C@@H]2C[C@H](NS(C)(=O)=O)C2(C)C)no1 | inconclusive: 22.4 µM [inhibitor, single point] | –
COc1ncccc1CN(Cc1cccnc1OC)C[C@H]1COCc2nc3ccc(C)cc3n21 | active: 4.47 µM | –
CCCNC(=O)OC[C@H]1C[C@@H]2CCN1C[C@@H]2c1cc(-c2ccc(F)cc2)nc(C)n1 | inconclusive: 8.91 µM [inhibitor, partial curve, poor fit] | –
Cc1ccccc1S(=O)(=O)N1[C@H]2CC[C@@H]1c1cnc(-c3ccccc3)nc1C2 | inconclusive: 11.2 µM [inhibitor, single point] | –
O=C(Nc1ccc(-c2nnc3n2CCCC3)cc1)c1ccccc1F | inconclusive: 0.0708 µM [inhibitor, full curve, poor fit] | –
CC(C)CNc1ccc2c(n1)C(C)(C(=O)NC1CC1)CN(Cc1ccccc1)C2 (stereo unspecified) | inactive | –
Cc1cc(C(=O)Nc2cccc(-c3nnc4n3CCCC4)c2)n[nH]1 | inconclusive: 5.01 µM [inhibitor, partial curve, poor fit] | –
COc1ccc(CNC(=O)N2CCC(c3noc(-c4ccccn4)n3)C2)cc1 (stereo unspecified) | – | inactive: -0.95% [at 5.79 µM]
COCCN1Cc2[nH]nc(-c3ccccc3OC)c2CC1=O | inactive | –

Structure (SMILES) | Potency | activity, negative = inhibition
Cn1ccnc1CN1CCCC(CCc2ccccc2)C1 (stereo unspecified) | active: 11.2 µM | –
CCC(=O)Nc1ccc2nnc(-c3ccc(C(=O)Nc4ccc5c(c4)OCCO5)cc3)n2c1 | active: 0.282 µM | –
CC(C)CCN1C(=O)CC[C@]2(C(=O)N3CCC(N4CCCCC4)CC3)CCCC[C@@H]12 | inconclusive: 1.78 µM [inhibitor, full curve, poor fit] | –
CCCNC(=O)CCn1nc(-c2ccc(C)cc2)c2ccccc2c1=O | inconclusive: 12.6 µM [inhibitor, single point] | –
C=CCNC(=O)C[C@@H]1CCN(C(=O)c2ccnc(Cl)c2)C[C@@H]1CC | inactive | –
Cc1nc(-c2c3n(c(=O)n(CC(=O)Nc4ccc(C)c(F)c4)c2=O)CCCC3)no1 | inconclusive: 7.08 µM [inhibitor, partial curve, poor fit] | –
Clc1cccc(-c2cnc([C@@H]3COCCN3Cc3ccccc3)[nH]2)c1 | inconclusive: 14.1 µM [inhibitor, partial curve, poor fit] | –
O=C(c1ccc(CN2C(=O)NC3(CCS(=O)(=O)CC3)C2=O)cc1)N1CCCC1 | inconclusive: 17.8 µM [inhibitor, single point] | –
COc1ccc(-c2nc(SCC(=O)NCC3CCCO3)c(-c3ccc(Cl)cc3)[nH]2)cc1 (stereo unspecified) | inconclusive: 10 µM [inhibitor, single point] | –
O=C(C1CCCC1)N1CCN(c2cc(-c3ccc(Cl)cc3)[nH]n2)CC1 | inactive | –
Oc1c(C(c2ccc(Br)cc2)N2CCOCC2)sc2nc(-c3ccco3)nn12 (stereo unspecified) | inactive | –
CCCNC(=O)N(C1CCOCC1)C1CCN(Cc2cccnc2)CC1 | inactive | –
CN(Cc1ccc(OC(F)(F)F)cc1)C1CCc2ccccc21 (stereo unspecified) | inactive | –
CC(C)c1nc(-c2ccc(OC3CCN(C(=O)c4n[nH]c5ccccc45)C3)cc2)no1 (stereo unspecified) | inconclusive: 1.58 µM [inhibitor, partial curve, poor fit] | –
CN(C)c1ccc(CN2CCCC3(C2)C(=NC2CCCC2)NC(=O)N3c2cccnc2)cc1 (stereo unspecified) | inconclusive: 12.6 µM [inhibitor, single point] | –
Cc1c2cnn(-c3ccccc3)c(=O)c2c(C)n1CC(=O)N1CCN(c2ccc(F)cc2)CC1 | inconclusive: 10 µM [inhibitor, single point] | –
COc1ccccc1C(=O)N1CCCn2nc(C)c(-c3ccccc3-c3ccccc3)c21 | inactive | –
COC(=O)c1ccc([C@H]2Nc3ccc(S(=O)(=O)Nc4ccc(C)cc4)cc3[C@H]3C=CC[C@H]32)cc1 | inconclusive: 17.8 µM [inhibitor, single point] | –
COC(=O)[C@@H]1Cc2ncn(Cc3ccc(Cl)cc3)c2CN1S(=O)(=O)c1ccc(C#N)cc1 | inconclusive: 10 µM [inhibitor, single point] | –
COc1ccc(C(=O)N2CCC3(CC2)N=C(c2ccccc2)NO3)cc1F | inconclusive: 15.8 µM [inhibitor, single point] | –
